Assay results: the supplement of paper PMC3334620
The full ranking holds about 33,000 sequences; the median of “E-score (-0.5 to 0.5)” is about -0.054, and the highest 2% start at about 0.35. The list shows a part of the results.

Molecular target: T1, Stb5 (UniProt P38699)
T1 sequence: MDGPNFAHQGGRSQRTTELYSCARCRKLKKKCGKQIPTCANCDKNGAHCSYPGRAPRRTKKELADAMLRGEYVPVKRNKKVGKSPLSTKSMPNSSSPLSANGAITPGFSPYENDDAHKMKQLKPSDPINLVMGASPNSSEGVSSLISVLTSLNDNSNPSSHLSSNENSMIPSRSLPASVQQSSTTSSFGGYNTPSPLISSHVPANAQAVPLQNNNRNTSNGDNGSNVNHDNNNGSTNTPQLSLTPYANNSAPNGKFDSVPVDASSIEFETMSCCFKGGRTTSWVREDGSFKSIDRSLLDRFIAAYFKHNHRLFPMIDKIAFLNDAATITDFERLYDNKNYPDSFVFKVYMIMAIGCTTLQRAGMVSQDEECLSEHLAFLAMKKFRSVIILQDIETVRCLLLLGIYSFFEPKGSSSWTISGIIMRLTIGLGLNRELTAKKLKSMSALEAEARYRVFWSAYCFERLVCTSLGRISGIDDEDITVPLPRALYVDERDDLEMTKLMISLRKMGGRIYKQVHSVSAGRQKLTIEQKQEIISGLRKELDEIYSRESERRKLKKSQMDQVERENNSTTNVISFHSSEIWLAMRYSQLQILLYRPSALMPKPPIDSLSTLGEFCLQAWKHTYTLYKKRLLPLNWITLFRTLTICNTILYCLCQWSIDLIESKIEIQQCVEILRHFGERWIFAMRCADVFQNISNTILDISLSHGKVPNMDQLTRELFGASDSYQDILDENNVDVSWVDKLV
Assay: PBM E-score (8-mer binding enrichment) (E-score (-0.5 to 0.5)); higher = stronger / more preferred TF binding; most listed sequences are background and not binding sites
Conditions: protein concentration: 200 nM; construct: GST-full length
Outline: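 Detection of bound protein used fluorescent anti-GST, with scans normalised by masliner. The proteins were GST-tagged yeast transcription factors applied at about 100-200 nM to universal all-10-mer Agilent arrays made double-stranded by primer extension. Each ungapped eight-base word, pooled with its reverse complement, was scored with an E-score from the Universal PBM Analysis Suite.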

Going from GACGCGGA to CAACGTCG, the “PBM E-score” value falls from 0.0671 to 0.038.

Going from ATCCCATG to ATGTGCTC, the “PBM E-score” value falls from -0.0545 to -0.151.

First: CTCAAGGC
Second: ATACACTC
The “PBM E-score” value of the first is lower: -0.114 for the first, -0.0497 for the second.

Going from ATCCAGCA to GCGTATAC, the “PBM E-score” value rises from -0.0774 to -0.0651.

First: GGTCAGCA
Second: CCGCATAC
The “PBM E-score” value of the first is lower: 0.0432 for the first, 0.202 for the second.

Going from CGTTGTAC to AGGAGAAC, the “PBM E-score” value falls from -0.041 to -0.164.

Going from ATGGAGTA to AGTTATAA, the “PBM E-score” value rises from -0.0604 to 0.134.

First: ATGTCGTG
Second: CGCATGTA
The “PBM E-score” value of the first is lower: -0.0651 for the first, 0.158 for the second.

Going from CGTACAAG to CTAATTCA, the “PBM E-score” value falls from -0.0216 to -0.111.

First: ACTGTTAC
Second: AAGCTCGA
The “PBM E-score” value of the first is higher: -0.163 for the first, -0.18 for the second.

First: ATGTCTGA
Second: CAGTGAAA
The “PBM E-score” value of the first is lower: -0.236 for the first, -0.0205 for the second.

Compared with ACCAAGCA, ACAGCCGG is higher in “PBM E-score” value: -0.0711 for the first, 0.2 for the second.

First: CATATTAA
Second: CCATTTTC
The “PBM E-score” value of the first is lower: -0.0448 for the first, -0.0355 for the second.

Compared with AGTTATGC, ACAGCACC is higher in “PBM E-score” value: 0.0315 for the first, 0.202 for the second.

Compared with ACCGCCTA, GGTTTGGA is lower in “PBM E-score” value: 0.206 for the first, 0.0254 for the second.

Going from ATCGCATA to GAAAACCA, the “PBM E-score” value falls from 0.0573 to -0.0411.

First: ATGGGATA
Second: ATCCAAAT
The “PBM E-score” value of the first is lower: -0.124 for the first, -0.103 for the second.

Compared with TGACTCAA, CCCTCTTC is lower in “PBM E-score” value: -0.195 for the first, -0.315 for the second.

Going from ATTCCCAA to GCGGGCCC, the “PBM E-score” value rises from -0.197 to 0.308.

First: GGTCCTTA
Second: AGATTCCG
The “PBM E-score” value of the first is higher: 0.179 for the first, 0.132 for the second.

Compared with ACTGCTCA, ACATTAAC is higher in “PBM E-score” value: -0.274 for the first, 0.0339 for the second.

First: CTCCTTAC
Second: AGCGTCCT
The “PBM E-score” value of the first is higher: -0.129 for the first, -0.177 for the second.

Going from AGTTCCGC to ACGAGGAT, the “PBM E-score” value falls from 0.361 to -0.242.

Compared with GTTTTTCA, CGCTAGTC is higher in “PBM E-score” value: -0.0118 for the first, 0.0421 for the second.

First: GGCAGAAA
Second: GTCCTCAC
The “PBM E-score” value of the first is higher: 0.0733 for the first, 0.0102 for the second.

Compared with AAGTACAC, CTCGTCTA is lower in “PBM E-score” value: -0.0188 for the first, -0.199 for the second.

Compared with AACGGCTA, ATAGGCCC is higher in “PBM E-score” value: -0.0813 for the first, 0.329 for the second.

Going from AAGCAATA to CCAGGCCG, the “PBM E-score” value rises from -0.0795 to 0.05.

First: AGAGAGCT
Second: CGCACATA
The “PBM E-score” value of the first is lower: -0.179 for the first, 0.277 for the second.

Compared with CAAAAGGA, AGTTGGGG is lower in “PBM E-score” value: -0.15 for the first, -0.215 for the second.

Going from ATTCAAGA to GACGAACA, the “PBM E-score” value rises from -0.0798 to 0.0525.

Compared with TACTAAGA, CGAGTCCG is higher in “PBM E-score” value: -0.065 for the first, 0.175 for the second.

First: CGACAGAG
Second: AAGACTGG
The “PBM E-score” value of the first is higher: 0.0441 for the first, -0.11 for the second.

Going from TGGAGCCA to CCTCGTCG, the “PBM E-score” value rises from -0.202 to 0.0785.

First: CAGGGGTC
Second: AGATAGGC
The “PBM E-score” value of the first is lower: -0.139 for the first, -0.13 for the second.

Going from GGGTCCAC to AACTCGGC, the “PBM E-score” value falls from 0.0782 to -0.00903.

Compared with ACTGCAGA, CTGCGGAC is higher in “PBM E-score” value: -0.185 for the first, 0.226 for the second.

Going from CTAGTTAA to ACCACAGC, the “PBM E-score” value falls from -0.0436 to -0.0817.

Compared with CTGGAAAA, TCGTGACA is lower in “PBM E-score” value: -0.0126 for the first, -0.123 for the second.

Compared with CCCCCGGG, AGCACGGG is lower in “PBM E-score” value: 0.237 for the first, 0.199 for the second.

Compared with ACGTGCCG, CAATAGAG is lower in “PBM E-score” value: 0.093 for the first, -0.255 for the second.

First: CATACCTA
Second: AGAAGGTC
The “PBM E-score” value of the first is lower: -0.146 for the first, -0.0142 for the second.

Compared with GGAGCAGA, CGCGTAGA is lower in “PBM E-score” value: -0.1 for the first, -0.155 for the second.

First: AGAAGTAT
Second: ACCGAAGG
The “PBM E-score” value of the first is lower: -0.168 for the first, 0.227 for the second.

Going from GAGGTGGA to GCCGAGGA, the “PBM E-score” value falls from 0.0596 to -0.00831.

Compared with GTTCTATA, AGATCAGG is lower in “PBM E-score” value: -0.0515 for the first, -0.126 for the second.

Going from CTTGACCC to AGCGTCAC, the “PBM E-score” value falls from 0.0204 to -0.0884.

First: CTTCATGC
Second: AATGACAT
The “PBM E-score” value of the first is higher: 0.0192 for the first, -0.161 for the second.

First: CATTGAAC
Second: ACCTCAAG
The “PBM E-score” value of the first is higher: -0.0368 for the first, -0.321 for the second.

Compared with TAAAGTAA, AAGAGCAA is higher in “PBM E-score” value: -0.128 for the first, -0.0829 for the second.

Compared with ACATCGGT, CGCTAAAA is lower in “PBM E-score” value: 0.344 for the first, 0.0761 for the second.

Going from GTGCGCAC to CCCATAGA, the “PBM E-score” value falls from 0.183 to -0.285.

Going from ACCGCCAG to GAAAGTAA, the “PBM E-score” value falls from 0.368 to 0.0101.

Going from AAGTGACG to AGTCAAAA, the “PBM E-score” value falls from 0.0708 to -0.00563.

First: CTTCAGGA
Second: ACACTTCA
The “PBM E-score” value of the first is higher: -0.0938 for the first, -0.222 for the second.

Compared with CCAGCATA, ATCGGTCC is higher in “PBM E-score” value: -0.179 for the first, 0.396 for the second.

First: CCTGATAG
Second: AGAGCTCG
The “PBM E-score” value of the first is lower: -0.182 for the first, -0.167 for the second.

First: AGGCTTGC
Second: GTCTCGGA
The “PBM E-score” value of the first is lower: -0.336 for the first, 0.0832 for the second.

Compared with TATGCACA, GATATTCC is higher in “PBM E-score” value: -0.16 for the first, 0.239 for the second.

Going from GGCGCGTA to CGCATATA, the “PBM E-score” value rises from 0.0314 to 0.18.

First: CCCCCCTA
Second: TCCTAGGA
The “PBM E-score” value of the first is lower: -0.234 for the first, -0.186 for the second.

Going from TGGGATAA to ACTTTACC, the “PBM E-score” value rises from 0.0481 to 0.0955.

First: ATGATTCC
Second: GAGTCGAA
The “PBM E-score” value of the first is higher: 0.0675 for the first, -0.157 for the second.

Going from ATGGCTTC to ACTGAGAC, the “PBM E-score” value rises from -0.305 to -0.159.

Going from ATTACGCC to CGGGTGGA, the “PBM E-score” value falls from 0.106 to -0.0171.

Compared with TCGGTTAA, ACGCCGAC is higher in “PBM E-score” value: 0.148 for the first, 0.435 for the second.

Compared with AAATATCC, CTGCGAGC is lower in “PBM E-score” value: 0.287 for the first, 0.0356 for the second.

Going from ATCTGTCA to AACCGAAT, the “PBM E-score” value rises from -0.111 to 0.0411.

First: CTCGATTC
Second: GCAAGTAA
The “PBM E-score” value of the first is lower: -0.268 for the first, 0.0422 for the second.

First: ATCTTCAG
Second: GTGTGGCA
The “PBM E-score” value of the first is lower: -0.233 for the first, -0.155 for the second.

First: ATTTCCGG
Second: AAATTGGT
The “PBM E-score” value of the first is higher: 0.27 for the first, -0.0138 for the second.

Going from CTGCCGGA to ACGTGGGC, the “PBM E-score” value falls from 0.0838 to 0.0595.

Compared with GCAGGCTA, CACCTTGG is higher in “PBM E-score” value: -0.122 for the first, -0.106 for the second.

First: ATGCAATC
Second: ATTCCAAT
The “PBM E-score” value of the first is lower: -0.146 for the first, -0.0948 for the second.

Going from AAGGCGCG to CACACGAA, the “PBM E-score” value falls from 0.0688 to -0.105.

First: CTTCTTTA
Second: AAACCCGC
The “PBM E-score” value of the first is lower: 0.113 for the first, 0.414 for the second.

Going from ATGGACTA to CGTATGAA, the “PBM E-score” value rises from -0.0893 to 0.0232.

Compared with ACAGACTA, ACCAGAAG is higher in “PBM E-score” value: -0.255 for the first, -0.0974 for the second.

First: TGGTTACA
Second: ATACCTTC
The “PBM E-score” value of the first is higher: 0.0306 for the first, 0.00151 for the second.

Compared with GTAAATTA, CAGGCCGC is higher in “PBM E-score” value: 0.0961 for the first, 0.187 for the second.

Compared with ACCTTCAG, CCGGCTCA is higher in “PBM E-score” value: -0.145 for the first, 0.251 for the second.

First: ATGCCGAG
Second: GAAACAGA
The “PBM E-score” value of the first is higher: 0.147 for the first, -0.146 for the second.

First: TACCCACA
Second: TCTCCCCA
The “PBM E-score” value of the first is lower: -0.228 for the first, -0.0906 for the second.

First: CAATAACC
Second: ATGCCGGA
The “PBM E-score” value of the first is lower: 0.0908 for the first, 0.373 for the second.

Going from TAAGGGTA to GGCCGGTA, the “PBM E-score” value rises from -0.108 to 0.259.

Going from ACCCTTCA to CCTTATAG, the “PBM E-score” value rises from -0.239 to 0.0545.
